Laboratory results from the supplement of paper PMC4967469.

Legend:
Test in all cases: Viability of human cancer cell lines after 72 h of drug (GDSC screen)
CCT018159 = compound: CCc1cc(-c2n[nH]c(C)c2-c2ccc3c(c2)OCCO3)c(O)cc1O [CCT018159]; details: top dose 10 µM; top dose inferred
Procedure: (§1)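 Human cancer cell lines in 384-well plates, medium with 10% serum, drug for 72 h over a 256-fold dose range (nine 2-fold or five 4-fold steps up to the top dose). Adherent lines were fixed and stained with the nucleic acid dye Syto60, suspension lines read with resazurin; signal relative to control wells, capped at 0 and 100%. One two-parameter sigmoid per drug and line, fitted in a mixed model over all curves with the slope shared within a line.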

VX-11e = compound: Cc1cnc(Nc2ccc(F)cc2Cl)nc1-c1c[nH]c(C(=O)N[C@H](CO)c2cccc(Cl)c2)c1 [VX-11e]; details: top dose 5.12 µM; top dose inferred
Procedure: as §1

Doxorubicin = compound: COc1cccc2c1C(=O)c1c(O)c3c(c(O)c1C2=O)C[C@@](O)(C(=O)CO)C[C@@H]3O[C@H]1C[C@H](N)[C@H](O)[C@H](C)O1 [Doxorubicin]; details: top dose 1.024 µM
Procedure: as §1

BIX02189 = compound: CN(C)Cc1cccc(N=C(c2ccccc2)c2c(O)[nH]c3cc(C(=O)N(C)C)ccc23)c1 [BIX02189]; details: top dose 20 µM; top dose inferred
Procedure: as §1

17-AAG = compound: C=CCNC1=C2C[C@@H](C)C[C@H](OC)[C@H](O)[C@@H](C)/C=C(\C)[C@H](OC(N)=O)[C@@H](OC)/C=C\C=C(/C)C(=O)NC(=CC1=O)C2=O [17-AAG]; details: top dose 1 µM
Procedure: as §1

Dimethyloxalylglycine = compound: COC(=O)CNC(=O)C(=O)OC [Dimethyloxalylglycine]; details: top dose 4000 µM; top dose inferred
Procedure: as §1

UNC1215 = compound: O=C(c1ccc(C(=O)N2CCC(N3CCCC3)CC2)c(Nc2ccccc2)c1)N1CCC(N2CCCC2)CC1 [UNC1215]; details: top dose 1 µM; top dose inferred
Procedure: as §1

Vismodegib = compound: CS(=O)(=O)c1ccc(C(=O)Nc2ccc(Cl)c(-c3ccccn3)c2)c(Cl)c1 [Vismodegib]; details: top dose 10 µM; top dose inferred
Procedure: as §1

TG101348 = compound: Cc1cnc(Nc2ccc(OCCN3CCCC3)cc2)nc1Nc1cccc(S(=O)(=O)NC(C)(C)C)c1 [TG101348]; details: top dose 10.24 µM
Procedure: as §1

OSI-027 = compound: COc1cccc2cc(-c3nc([C@H]4CC[C@H](C(=O)O)CC4)n4ncnc(N)c34)[nH]c12 [OSI-027]; details: top dose 20 µM
Procedure: as §1

BMX-IN-1 (QL-XII-61) = compound: C=CC(=O)Nc1cc(-n2c(=O)ccc3cnc4ccc(-c5ccc(NS(C)(=O)=O)cc5)cc4c32)ccc1C [BMX-IN-1 (QL-XII-61)]; details: top dose 10 µM; top dose inferred
Procedure: as §1

Cell Line	AUC (CCT018159)	IC50 (CCT018159)	AUC (VX-11e)	IC50 (VX-11e)	AUC (Doxorubicin)	IC50 (Doxorubicin)	AUC (BIX02189)	IC50 (BIX02189)	AUC (17-AAG)	IC50 (17-AAG)	AUC (Dimethyloxalylglycine)	IC50 (Dimethyloxalylglycine)	AUC (UNC1215)	IC50 (UNC1215)	AUC (Vismodegib)	IC50 (Vismodegib)	AUC (TG101348)	IC50 (TG101348)	AUC (OSI-027)	IC50 (OSI-027)	AUC (BMX-IN-1 (QL-XII-61))	IC50 (BMX-IN-1 (QL-XII-61))
IA-LM (large cell lung carcinoma, adherent)	0.975	> 10 µM	0.886	> 5.12 µM	0.489	0.0596 µM	0.97	> 20 µM	0.975	> 1 µM	0.464	197 µM	0.976	> 1 µM	0.972	> 10 µM	0.966	> 10.2 µM	0.633	3.05 µM	0.872	> 10 µM
ONS-76 (medulloblastoma, adherent)	0.855	8.92 µM	0.646	0.838 µM	0.332	0.021 µM	0.916	> 20 µM	0.936	> 1 µM	0.495		0.983	> 1 µM	0.932	> 10 µM	0.712	2.68 µM	0.286	0.295 µM	0.982	> 10 µM
CS1 (bone, adherent)	0.869	> 10 µM	0.954	> 5.12 µM	0.72	0.293 µM	0.875	> 20 µM	0.655	0.178 µM	0.79	2020 µM	0.982	> 1 µM	0.966	> 10 µM	0.694	2.4 µM	0.166	0.102 µM	0.962	> 10 µM
M059J (glioma, adherent)	0.935	> 10 µM	0.94	> 5.12 µM	0.419	0.0376 µM	0.95	> 20 µM	0.524	0.0731 µM	0.563	377 µM	0.984	> 1 µM	0.98	> 10 µM	0.865	> 10.2 µM	0.734	6.2 µM	0.955	> 10 µM
huH-1 (liver, adherent)	0.907	> 10 µM	0.984	> 5.12 µM	0.908	> 1.02 µM	0.984	> 20 µM	0.512	0.0681 µM	0.359	92.2 µM	0.982	> 1 µM	0.947	> 10 µM	0.977	> 10.2 µM	0.952	> 20 µM	0.982	> 10 µM
MDST8 (large intestine, adherent)	0.883	> 10 µM	0.861	4.3 µM	0.73	0.287 µM	0.971	> 20 µM	0.779	0.406 µM	0.866	3520 µM	0.938	> 1 µM	0.959	> 10 µM	0.88	> 10.2 µM	0.748	6.4 µM	0.955	> 10 µM
ALL-PO (lymphoblastic leukaemia, suspension)	0.913	> 10 µM	0.816	3.05 µM	0.498	0.0632 µM	0.465	0.998 µM	0.832	0.692 µM	0.316	74.1 µM	0.981	> 1 µM	0.853	8.52 µM	0.27	0.135 µM	0.242	0.214 µM	0.979	> 10 µM
RPMI-8866 (chronic myeloid leukaemia, suspension)	0.805	4.63 µM	0.86	3.79 µM	0.695	0.215 µM	0.856	14.3 µM	0.852	0.687 µM	0.869	3250 µM	0.987	> 1 µM	0.805	4.61 µM	0.824	5.53 µM	0.731	5.35 µM	0.921	> 10 µM
TE-8 (oesophagus, adherent)	0.871	> 10 µM	0.947	> 5.12 µM	0.217	0.00884 µM	0.92	> 20 µM	0.621	0.138 µM	0.719	1100 µM	0.982	> 1 µM	0.957	> 10 µM	0.98	> 10.2 µM	0.876	> 20 µM	0.895	> 10 µM
D-263MG (glioma, adherent)	0.936	> 10 µM	0.982	> 5.12 µM	0.704	0.275 µM	0.974	> 20 µM	0.443	0.0421 µM	0.611	541 µM	0.969	> 1 µM	0.962	> 10 µM	0.978	> 10.2 µM	0.974	> 20 µM	0.938	> 10 µM
NCI-H650 (lung adenocarcinoma, adherent)	0.867	> 10 µM	0.96	> 5.12 µM	0.684	0.222 µM	0.955	> 20 µM	0.656	0.178 µM	0.802	2200 µM	0.985	> 1 µM	0.982	> 10 µM	0.86	10 µM	0.426	0.767 µM	0.984	> 10 µM
NUGC-4 (stomach, adherent)	0.981	> 10 µM	0.929	> 5.12 µM	0.616	0.133 µM	0.875	19.6 µM	0.726	0.274 µM	0.79	1790 µM	0.973	> 1 µM	0.988	> 10 µM	0.883	> 10.2 µM	0.953	> 20 µM	0.874	9.76 µM
WM1552C (melanoma, adherent)	0.956	> 10 µM	0.987	> 5.12 µM	0.485	0.0582 µM	0.986	> 20 µM	0.779	0.412 µM	0.634	587 µM	0.985	> 1 µM	0.986	> 10 µM	0.776	4.1 µM	0.558	1.81 µM	0.986	> 10 µM
H9 (lymphoid neoplasm, suspension)	0.876	6.98 µM	0.685	0.946 µM	0.479	0.0568 µM	0.924	> 20 µM	0.872	0.672 µM	0.807	1630 µM	0.991	> 1 µM	0.988	> 10 µM	0.769	3.21 µM	0.808	8.22 µM	0.901	8.89 µM
RO82-W-1 (thyroid, adherent)	0.862	> 10 µM	0.982	> 5.12 µM	0.844	> 1.02 µM	0.971	> 20 µM	0.749	0.404 µM	0.787	2290 µM	0.978	> 1 µM	0.982	> 10 µM	0.97	> 10.2 µM	0.962	> 20 µM	0.959	> 10 µM
EoL-1-cell (haematopoietic neoplasm, suspension)	0.846	6.07 µM	0.758	1.59 µM	0.383	0.0318 µM	0.252	0.269 µM	0.842	0.585 µM	0.398	136 µM	0.972	> 1 µM	0.89	9.12 µM	0.523	0.732 µM	0.501	1.26 µM	0.642	1.46 µM
SHP-77 (small cell lung carcinoma, semi-adherent)	0.877	8.2 µM	0.954	> 5.12 µM	0.98	> 1.02 µM	0.971	> 20 µM	0.88	0.847 µM	0.691	804 µM	0.968	> 1 µM	0.991	> 10 µM	0.876	8.33 µM	0.511	1.34 µM	0.987	> 10 µM
WM-115 (melanoma, adherent)	0.928	> 10 µM	0.772	2.44 µM	0.979	> 1.02 µM	0.945	> 20 µM	0.444	0.0425 µM	0.484	224 µM	0.977	> 1 µM	0.916	> 10 µM	0.801	6.36 µM	0.332	0.38 µM	0.92	> 10 µM
CCK-81 (large intestine, adherent)	0.936	> 10 µM	0.852	3.6 µM	0.928	> 1.02 µM	0.961	> 20 µM	0.925	> 1 µM	0.954	> 4000 µM	0.989	> 1 µM	0.988	> 10 µM	0.9	> 10.2 µM	0.861	15.3 µM	0.983	> 10 µM
KELLY (neuroblastoma, adherent)	0.853	6.73 µM	0.911	> 5.12 µM	0.829	0.561 µM	0.841	12.1 µM	0.903	> 1 µM	0.652	632 µM	0.987	> 1 µM	0.981	> 10 µM	0.884	9.33 µM	0.747	5.9 µM	0.975	> 10 µM
WIL2-NS (lymphoid neoplasm, suspension)	0.962	> 10 µM	0.887	3.89 µM	0.296	0.0193 µM	0.896	16.4 µM	0.908	0.935 µM	0.78	1330 µM	0.985	> 1 µM	0.986	> 10 µM	0.635	1.39 µM	0.208	0.216 µM	0.853	5.67 µM

The IC50 comes from the fitted curve, where viability falls to half of the control; a fit beyond the top or the lowest dose is shown as a bound at that dose. AUC, from the same fit, is the share of area under the viability curve across the 256-fold dose range; it is 1 without any effect and falls as sensitivity rises. For some assays here: An inferred top dose comes from the curve model; the source does not state it.
